# Experimental data taken from patent US20250134874A1, “PHARMACEUTICAL FORMULATIONS COMPRISING 3-({[(4R)-7-{METHYL[4-(PROPAN-2-YL)PHENYL]AMINO}-3,4-DIHYDRO-2H-1-BENZOPYRAN-4-YL]METHYL}AMINO)PYRIDINE-4-CARBOXYLIC ACID” (TACHYON THERAPEUTICS, INC., priority 2021, published 2025).
# Further values from the same series stand in other lists.
# System: 301 cancer cell lines from different tumor types (OncoPanel; HD Biosciences)
# Assay: 2D cell viability inhibition assay (CellTiter-Glo) in cancer cell line panel
# Type: cell-based
# Settings: in %
# Protocol: In a larger screening study, compound 1 was evaluated across a broad cancer cell line panel (OncoPanel; HD Biosciences) composed of 301 cancer cell lines from different tumor types.
# 2D cell viability inhibition assays were performed in multiwell plates seeded with cells from the panel. After seeding, the plates were cultured overnight in a humidified incubator at 37° C. to promote adherence. Assays were initiated in individual wells by adding either DMSO as a vehicle control, growth media as a blank, or serially diluted compound 1 (10 μM to 0.0005 μM with 1:3 serial dilution). Cultures were incubated for 168 hours after which the number of viable cells in each test well was assessed using the CellTiter-Glo® Luminescent Cell Viability Assay. Luminescence readouts were performed using an EnVision® Multilabel Reader and the compound 1 readouts were normalized to the DMSO control readouts, expressed as a percent of the control. Outliers were flagged out by visual inspection. Percent of control was plotted against the corresponding compound 1 concentration and the absolute IC50 value was determined using four-parameter logistic non-linear regression as the concentration where inhibition was 50% of the control. For maximum inhibition <50%, the absolute IC50 was reported as >10. In addition to EC50 and IC50, AUC was determined and was normalized to the area corresponding to theoretical no-inhibition (the rectangular area defined by the compound dose range and 0 to 100 in y). Emax was recorded as the minimum in y with the compound dose range. For those cell lines where Emax>40, EC50 was manually set to 10 μM. A hierarchical clustering algorithm based on Euclidean distance between the standardized input values and “Ward.D” method as implemented in R hclust function was used to visualize the compound 1 cellular potency data. The sensitive/moderate/resistant calls for each cell line was determined by visually inspecting the resulting clustering dendrogram. All the analyses were done in R Core Team.
smiles,measurement,setting,value
"CC(C)c1ccc(N(C)c2ccc3c(c2)OCC[C@H]3CNc2cnccc2C(=O)O)cc1 [Compound 1, 3-({[(4R)-7-{methyl[4-(propan-2-yl)phenyl]amino}-3,4-dihydro-2H-1-benzopyran-4-yl]methyl}amino)pyridine-4-carboxylic acid]",Emax,7860 cell line,22.93
same,Emax,"A204, soft tissue, NS, 168 hours",58.91
same,Emax,A549 cell line,31.11
same,Emax,A2058 cell line,30.64
same,Emax,A2780 cell line,3.567
same,Emax,ACHN cell line,2.197
same,Emax,ASPC1 cell line,32.81
same,Emax,AZ521 cell line,8.891
same,Emax,BICR18 cell line,4.762
same,Emax,BICR22 cell line,54.76
same,Emax,"BT20, breast, ductal carcinoma, 168 hours",78.79
same,Emax,"BT474, breast, ductal carcinoma, 168 hours",53.88
same,Emax,BXPC3 cell line,36.5952
same,Emax,"C2BBE1, large intestine, adenocarcinoma, 168 hours",59.34
same,Emax,C32 cell line,1.007
same,Emax,"CAL27, upper aerodigestive tract, squamous cell carcinoma, 168 hours",74.68
same,Emax,"CALU1, lung, squamous cell carcinoma, 168 hours",118.4694
same,Emax,"CALU3, lung, adenocarcinoma, 168 hours",50.88
same,Emax,CAPAN1 cell line,40.2242
same,Emax,"CAPAN2, pancreas, ductal carcinoma, 168 hours",75.02
same,Emax,"CCFSTTG1, central nervous system, astrocytoma, 168 hours",78.9
same,Emax,CHL1 cell line,13.22
same,Emax,COLO320HSR cell line,0.9007
same,Emax,COLO679 cell line,24.72
same,Emax,COLO829 cell line,47.96
same,Emax,CORL279 cell line,11.3227
same,Emax,"DAOY, central nervous system, NS, 168 hours",83.4
same,Emax,DLD1 cell line,5.54
same,Emax,"DMS53, lung, small cell carcinoma, 168 hours",49.07
same,Emax,DMS79 cell line,27.09
same,Emax,DMS153 cell line,50.81
same,Emax,DMS273 cell line,16.58
same,Emax,ECGI10 cell line,39.23
same,Emax,"G361, skin, NS, 168 hours",89.52
same,Emax,G401 cell line,3.808
same,Emax,GAK cell line,47.7
same,Emax,GI1 cell line,9.191
same,Emax,GP2D cell line,20.32
same,Emax,"HCC38, breast, ductal carcinoma, 168 hours",93.61
same,Emax,HCC78 cell line,23.4
same,Emax,HCC95 cell line,17.04
same,Emax,"HCC827, lung, adenocarcinoma, 168 hours",74.84
same,Emax,HCC1143 cell line,50.38
same,Emax,"HCC1419, breast, ductal carcinoma, 168 hours",52.42
same,Emax,"HCC1428, breast, NS, 168 hours",59.9889
same,Emax,"HCC1937, breast, ductal carcinoma, 168 hours",80.9493
same,Emax,HCC1954 cell line,43.63
same,Emax,HCC2935 cell line,50.08
same,Emax,HCT116 cell line,35.92
same,Emax,HEP3B217 cell line,47.2
same,Emax,HEPG2 cell line,37.76
same,Emax,HPAC cell line,20.85
same,Emax,HS294T cell line,28.14
same,Emax,"HS688AT, skin, NS, 168 hours",98.47
same,Emax,"HS695T, skin, NS, 168 hours",74.11
same,Emax,"HS739T, breast, NS, 168 hours",78.35
same,Emax,"HS839T, skin, NS, 168 hours",101.2434
same,Emax,"HS852T, skin, NS, 168 hours",78.51
same,Emax,HSC3 cell line,47.26
same,Emax,HT29 cell line,29.83
same,Emax,"HT144, skin, NS, 168 hours",81.61
same,Emax,HT1376 cell line,18.92
same,Emax,"HUH28, biliary tract, NS, 168 hours",92.15
same,Emax,HUTU80 cell line,8.151
same,Emax,J82 cell line,48.7
same,Emax,JEKO1 cell line,0.08738
same,Emax,JIMT1 cell line,13.46
same,Emax,K562 cell line,4.383
same,Emax,KALS1 cell line,49.79
same,Emax,"KASUMI1, haematopoietic and lymphoid tissue, acute myeloid leukaemia, 168 hours",81.08
same,Emax,KATOIII cell line,12.88
same,Emax,"KG1, haematopoietic and lymphoid tissue, acute myeloid leukaemia, 168 hours",80.44
same,Emax,KNS81 cell line,58.5801
same,Emax,"KURAMOCHI, ovary, undifferentiated carcinoma, 168 hours",73.85
same,Emax,"KYSE70, oesophagus, squamous cell carcinoma, 168 hours",50.19
same,Emax,KYSE150 cell line,9.557
same,Emax,KYSE270 cell line,7.793
same,Emax,KYSE510 cell line,0.5797
same,Emax,LNCAP cell line,21.5094
same,Emax,LOUCY cell line,2.522
same,Emax,LOVO cell line,47.95
same,Emax,"LU99, lung, large cell carcinoma, 168 hours",64.66
same,Emax,LUDLU1 cell line,28.03
same,Emax,"MALME3M, skin, NS, 168 hours",94.08
same,Emax,MC116 cell line,5.43
same,Emax,MCF7 cell line,43.7
same,Emax,"MDAMB157, breast, ductal carcinoma, 168 hours",64.71
same,Emax,"MDAMB175VII, breast, ductal carcinoma, 168 hours",60.66
same,Emax,"MDAMB231, breast, NS, 168 hours",55.94
same,Emax,"MDAMB361, breast, NS, 168 hours",94.55
same,Emax,"MDAMB415, breast, NS, 168 hours",83.39
same,Emax,"MDAMB436, breast, NS, 168 hours",70.42
same,Emax,"MDAMB468, breast, NS, 168 hours",50.87
same,Emax,"MEWO, skin, NS, 168 hours",56.56
same,Emax,MKN1 cell line,17.76
same,Emax,MPP89 cell line,51.43
same,Emax,MV411 cell line,0.05647
same,Emax,NAMALWA cell line,6.457
same,Emax,NCIH23 cell line,27.39
same,Emax,NCIH82 cell line,4.91
